PubChem BioAssay AID1346428 (National Center for Advancing Translational Sciences (NCATS), 2018)
“And” between values parts separate entries of the source, which are not always exact repeats. Equal entries are not always repeated. In all, about 48,000 compounds went through this assay and about 1,200 (2.5%) were called active. About 2% were inconclusive and are not listed.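 How the source made its calls: active means activation of at least 60% and not above a set upper limit (about 1 call in 100 departs from these limits); inconclusive means activation of 40% to 60%, or above that upper limit; inactive means activation under 40%.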 Some of the results follow.

These compounds were tested against Probable G-protein coupled receptor 32 (Homo sapiens) (UniProt O75388) (assay: qHTS for Agonists of Human Resolvin D1 Receptor DRV1). Conditions: CHO-K1 GPR32 beta-arrestin PathHunter luminescence, 90 min; at 76.9 µM; active compounds read high; zero percent set by DMSO-only wells.
How it was run: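 GPR32 activation in stably transfected CHO-K1 cells, detected as beta-arrestin recruitment by enzyme-fragment complementation. Compound exposure: 90 min, 37 °C.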
Further: 0% is about no effect.

UniProt O75388, sequence (O75388 whole entry, looked up, the tested form may be a part): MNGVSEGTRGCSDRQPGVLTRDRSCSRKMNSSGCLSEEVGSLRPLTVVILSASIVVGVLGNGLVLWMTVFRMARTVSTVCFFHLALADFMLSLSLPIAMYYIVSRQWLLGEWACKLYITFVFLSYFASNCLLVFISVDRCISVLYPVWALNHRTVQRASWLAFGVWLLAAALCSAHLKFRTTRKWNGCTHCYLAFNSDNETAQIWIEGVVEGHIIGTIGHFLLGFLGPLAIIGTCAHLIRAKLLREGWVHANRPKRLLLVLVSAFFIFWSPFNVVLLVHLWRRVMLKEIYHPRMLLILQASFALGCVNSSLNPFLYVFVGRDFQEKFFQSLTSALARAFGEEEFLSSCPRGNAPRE

| Structure (SMILES) | activation |
| --- | --- |
| CC(NC(=O)C(=O)Nc1c2c(nn1-c1ccccc1)CSC2)c1ccccc1 (centres undefined) | inactive: -21.5% |
| COc1cccc(NC(=O)Cn2nc3c4ccccc4n(Cc4cccc(F)c4)cc-3c2=O)c1 | inactive: 4.81% |
| Cc1nn(CCC(=O)NCc2ccc(N(C)C)cc2)c(=O)c2nn(-c3ccccc3)c(C)c12 | inactive: -4.46% |
| Cc1ccc(N2CC(NC(=O)c3ccc(Br)o3)CC2=O)cc1C (centres undefined) | inactive: -3.81% |
| Cc1c(-c2ccc(O)cc2)n(Cc2ccc(OCCN3CCCCCC3)cc2)c2ccc(O)cc12 | inactive: 4.08% |
| CC(C)(C)c1ccc(C(=O)Nc2ccc(-c3nc4cc(Cl)ccc4o3)cc2)cc1 | inactive: -2.64% |
| CCOc1ccc(NCc2cccn2-c2nnc(N3CCC(C(=O)NCc4ccc(C)cc4)CC3)s2)cc1 | inactive: -25% |
| Cc1nnc(N2CCN(c3ccccc3F)CC2)c2c1nnn2Cc1ccccc1Cl | inactive: -2.17% |
| COc1ccc(N2CCN(CC(O)COc3ccc(C(C)C)c(C)c3)CC2)cc1 (centres undefined) | active: 104% |
| COc1ccc2nc3oc(C(=O)N(C)c4ccc(Cl)cc4)cc3cc2c1 | inactive: 33.1% |
| CCc1nnc(NC(=O)CSc2nccn2Cc2ccc(F)cc2)s1 | inactive: 11.4% |
| c1cc(CN2CCCCC2)cc(OCCCNc2nc3ccccc3s2)c1 | inactive: -22.1% and inactive: -10.7% |
| O=C(c1ccc2c(c1)N(Cc1ccccc1F)C(=O)c1ccccc1S2=O)N1CCCCC1 (centres undefined) | inactive: -29.7% |
| CCN(CC)C(=O)Cn1c(=O)n(CCCCCC(=O)NCc2ccccc2)c(=O)c2sccc21 | inactive: -2.51% |
| COc1ccccc1C(=O)Nc1ccccc1SCc1cc(=O)c2ccccc2[nH]1 | inactive: 4.19% |
| CCOc1cc(/C=C(\C#N)C(=O)Nc2ccccc2C)ccc1OCc1cc(=O)n2nc(CC)sc2n1 | inactive: 7.57% |
| O=C(NC1CC(=O)N(c2ccc(F)cc2)C1)C1CCCCC1 (centres undefined) | inactive: -2.56% |
| CNCC(O)c1ccc(O)c(O)c1 (centres undefined) | inactive: 43.7% and inactive: -2.2% |
| COc1cccc(C(c2c(O)cc(C)n(Cc3ccco3)c2=O)N2CCC(C)CC2)c1 (centres undefined) | inactive: -11% |
| Cc1nnc(SCC(=O)NCc2ccc(N(C)C)cc2)c2nn(-c3ccccc3)c(C)c12 | inactive: -5.28% |
| Cc1ccc(NC(=O)C2CCN(c3nnc(-n4cccc4)s3)CC2)cc1Cl | inactive: 8.65% |

| Structure (SMILES) | activation |
| --- | --- |
| CCOc1ccc(-c2csc(-c3nc(-c4ccc(Br)s4)cs3)n2)cc1 | inactive: 11.8% |
| COc1ccc(OC)c2sc(N(Cc3cccnc3)C(=O)c3ccc(C(C)=O)cc3)nc12 | inactive: -27.6% |
| O=C(NCc1ccccc1)c1cc2ccccc2o1 | inactive: -3.75% |
| COc1ccc(-c2nc(C)c(CCNC(=O)c3cc(OC)c(OC)c(OC)c3)s2)cc1OC | inactive: -5.19% |
| Cc1ccc(C(=O)COC(=O)c2cccc(NC(=O)c3ccc(Br)cc3)c2)cc1 | inactive: 6.43% |
| Cc1ccc(C)c(N2CCN(S(=O)(=O)c3ccc4c(c3)CC(=O)N4C)CC2)c1 | inactive: -8.99% |
| CC(C)CCNC(=O)c1cccc(-n2cnc3cccnc32)c1 | inactive: -14.8% |
| CCCCN(CC)CCCNC(=O)C1CCN(c2nc3ccc(CC)cc3s2)CC1 | inactive: -4.28% |
| Cc1ccc2c(c1)-c1c(c(C(=O)NCCc3ccccc3)nn1C)CS2 | inactive: -0.257% |
| Cc1cccc(CS(=O)(=O)Cc2ccc(C(=O)NC(C)c3ccccc3)o2)c1 (centres undefined) | inactive: -4.86% |
| COc1cccc(CNC(=O)Cn2c(SCC(=O)Nc3ccc(F)cc3)nc3ccccc32)c1 | inactive: 46.3% |
| COc1ccc(CCC(=O)NCc2nc3cccnc3n2Cc2ccc(C)cc2)cc1 | inactive: -29.1% |
| CCOCCCNC(=O)c1[nH]c2cc(OC)ccc2c1Sc1ccccc1 | inactive: -3.6% |
| Cc1cccc(N(CC(=O)Nc2cccc(Cl)c2C)S(C)(=O)=O)c1C | inactive: 38.4% |
| Cc1ccc(S(=O)(=O)NCC(c2ccco2)N2CCN(c3ccccc3F)CC2)cc1 (centres undefined) | inactive: -32% |
| Cc1cccc(Nc2nc3ccccc3n3c(N)nnc23)c1 | inactive: -30.7% |
| Cc1cc2n(n1)CCCN2C(=O)Nc1cccc(C)c1C | inactive: 4.79% |
| Cc1ccc(Cn2c(=O)c3cccnc3n(Cc3ccc(F)cc3)c2=O)cc1 | inactive: -20.3% |
| OC1(c2ccccc2)CCNCC1 | inactive: -26.5% |
| COc1cccc(N2CCN(c3ncc4c(n3)CCN(Cc3ccc(Br)cc3)C4)CC2)c1 | inactive: -9.4% |
| Cc1c(C(=O)N(C)C)sc2c1c(=O)n(-c1ccc(F)cc1)c(=O)n2CC(=O)N(C)c1ccccc1 | inactive: -4.99% |

| Structure (SMILES) | activation |
| --- | --- |
| COc1ccccc1CNC(=O)CCC1N=C2c3ccccc3N=C(SCC(=O)NCCc3ccccc3)N2C1=O (centres undefined) | inactive: 0.779% |
| Cc1ccc(OC(C)C(=O)NCC2(N3CCOCC3)CCCCC2)cc1C (centres undefined) | inactive: -37% |
| CCc1ccc2oc(C(=O)Nc3nc(-c4ccccc4)ns3)c(C)c2c1 | inactive: -2.91% |
| Cc1cccc(CNC(=O)c2ccc(Cn3c(SCc4ccccc4)nc4cccnc43)cc2)c1 | inactive: -1.25% |
| CCOc1ccc(-n2c(SC(C)C(=O)OC)nc3c([nH]c4ccccc43)c2=O)cc1 (centres undefined) | inactive: -5.87% |
| Cc1cc2oc(C(=O)Nc3ccc(S(=O)(=O)Nc4onc(C)c4C)cc3)cc(=O)c2cc1C | inactive: -0.478% |
| COc1ccc(Cl)cc1NC(=O)c1nc(S(C)(=O)=O)ncc1N(Cc1ccc(C)cc1)Cc1ccco1 | inactive: -18.7% |
| O=C(CSc1nc(=O)[nH]c2c1CCCC2)NCc1ccc(Cl)cc1 | inactive: -0.854% |
| CCOC(=O)c1c(NC(=O)/C=C/c2ccc(OC)cc2)sc2c1CCC(C)C2 (centres undefined) | inactive: -3.4% |
| NC[C@H](O)c1ccc(O)c(O)c1 | inactive: 2.17% and inactive: -8.95% |
| CCN(CCCNC(=O)c1cc2c(=O)[nH]c3ccc(C)cc3c2s1)Cc1ccccc1 | inactive: -16.6% |
| Cc1ccccc1C(=O)Nc1sc2c(c1C(=O)N1CCC(C)CC1)CCCC2 | inactive: -21.8% |
| CC(=O)Nc1ccccc1-c1nc2ccccc2n(C(C)C(=O)c2ccc(C)c(C)c2)c1=O (centres undefined) | inactive: -2.05% |
| NC[C@H]1O[C@H](O[C@H]2[C@H](O[C@@H]3O[C@H](CO)[C@@H](O)[C@H]3O)C(O)[C@H](N)C[C@@H]2N)[C@H](N)[C@@H](O)[C@@H]1O (some centres undefined) | inactive: -40% |
| CCN(c1ccccc1)S(=O)(=O)c1nnc(NC(=O)COc2ccccc2F)s1 | inactive: 13.4% |
| CCOc1ccc(CC(=O)NC2CC(=O)N(c3ccc4c(c3)OCCO4)C2)cc1 (centres undefined) | inactive: 4.72% |
| COc1cc(C2C(=O)N(C3CCC(C)CC3)CC(=O)N2CCc2ccc(Cl)cc2)ccc1OC(C)C (centres undefined) | inactive: -5.81% |
| Cc1ccc(NC(=O)CN(C)S(=O)(=O)c2cccc3nsnc23)c(C)c1 | inactive: -4.51% |
| COc1ccc(-c2[nH]ncc2C(=O)NCc2ccccc2OC)cc1 | inactive: -21.3% |
| Cc1ccc(Nc2cc(-c3ccccc3)nc(C)n2)cc1 | inactive: -5.63% |
| COc1ccc(CNC(=O)C(=O)NCC(c2cccnc2)N2CCN(c3ccccc3F)CC2)cc1 (centres undefined) | inactive: 17.3% |

| Structure (SMILES) | activation |
| --- | --- |
| CC(=O)Nc1ccc(S(=O)(=O)Nc2ccc3c(c2)n(C)c(=O)n3C)c(C)c1 | inactive: -6.18% |
| Cc1cc(C)n(-c2nc3cc(Cl)c(Cl)cc3nc2Nc2c(C)cccc2C)n1 | inactive: 10.1% |
| Cc1ccc(NC(=O)[C@H](Cc2ccccc2)N2Cc3ccccc3C2=O)cc1 | inactive: 24% |
| Cc1noc(C)c1S(=O)(=O)NCCc1csc2nc(-c3ccc(F)cc3)nn12 | inactive: -0.0327% |
| CCSC1=NC2(CCN(C(=O)NC3CCCCC3)CC2)N=C1c1ccc(C)c(C)c1 | inactive: -11.6% |
| CCCN(CCC)CCNC(=O)c1cc(Sc2ccc(Cl)cc2)nc2ccccc12 | inactive: -20.4% |
| COc1nc(Oc2ccc(=O)n(-c3ccccc3)n2)nc(N(C)C)n1 | inactive: -8.93% |
| CCc1cccc(NC(=O)c2ccc3c(=O)n4nc(Nc5ccccc5OC)sc4nc3c2)c1 | inactive: 6.37% |
| COc1ccc(OC)c(NC(=O)CCc2c(C)nc3c(-c4ccccc4)c(C)nn3c2C)c1 | inactive: -7% |
| CCOC(=O)c1c(NC(=O)c2cc3ccccc3c(=O)o2)sc2c1CCCC2 | inactive: -3.71% |
| Cc1cccc(CSCCNC(=O)CN(c2ccccc2)S(=O)(=O)N(C)C)c1 | inactive: -19.1% |
| Cc1ccc(S(=O)(=O)c2cn(CC(=O)Nc3ccc4c(c3)OCO4)c3ccc(F)cc3c2=O)cc1 | inactive: 1.89% |
| CC(C)NC(=O)c1nn(C)c2c1CS(=O)(=O)c1ccccc1-2 | inactive: -5.86% |
| COC(=O)c1cc(Cl)ccc1NC(=O)Cn1c(C)cc(C)c(C#N)c1=O | inactive: 4.29% |
| CCOc1ccccc1CN(CCc1ccc2c(c1)OCO2)Cc1cc(OC)c(OC)cc1OC | inactive: -23.2% |
| COc1ccccc1CNc1nc(-c2ccco2)nn1S(=O)(=O)c1ccc(C)cc1 | inactive: -34.1% |
| Clc1ccc(CN2CCc3nc(Nc4ccc5c(c4)OCCO5)ncc3C2)cc1 | inactive: 9.01% |
| CCOC(=O)N1CCC(NC(=O)c2cnn(-c3cccc(C)c3)c2C2CCN(C(=O)OC(C)(C)C)CC2)CC1 | inactive: -11.5% |
| CCCCCCOc1ccccc1C(N)=O | inactive: 23.6% |
| CCn1c(=O)c2sccc2n2c(CCCC(=O)N3CCN(c4ccccc4OC)CC3)nnc12 | inactive: -15.6% |
| Cc1ccccc1C(=O)NCc1ccc2c(c1)CCN2C(=O)c1ccccc1 | inactive: -30.3% |
